# Measured values as given in PubChem BioAssay AID1745849 (National Center for Advancing Translational Sciences (NCATS), 2022).
# In all, about 2,100 compounds went through this assay and about 320 (15%) were called active. The inconclusive results got no clear call from the source; some entries with a clear call stand among them for comparison. The call rests on the fitted dose curve; in most records, active means well fitted cell-killing curve with a large enough effect; inconclusive means small, poorly fitted or top-dose-only effect, or effect the other way; inactive means flat fitted curve, though single readings scatter. Where the call is inconclusive, the potency comes from a doubtful curve fit.
# Experiment: Viability Counterscreen for CMV-Luciferase Assay of Inhibitors of ATXN expression; further: nearly all actives have a fitted effect of over 55% in size
# Conditions: HEK-293 CMV-luciferase cells viability, protease fluorescence, 24 h
# Procedure, shortened: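 Dosing on CMV-luciferase HEK-293 cells for 24 hr, 37 °C. Luminescence read with SteadyGlo; cytotoxicity measured first as Gly-Phe-AFC protease fluorescence, 25 uM final substrate, 30 min.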
# Potency means the concentration at half of the fitted maximal effect; tags describe the fitted curve by direction and shape.
row,SMILES,Potency
1,O=C(N/N=C/c1ccccc1O)C1CC(=O)N(c2ccc(Cl)cc2)C1 (configuration not stated),"inconclusive: 1.41 µM [cytotoxic, partial curve, poor fit]"
2,CC(C)=C1SC(N2CCN(c3ccc(C)c(Cl)c3)CC2)=NC1=O,inactive
3,CCC(=O)NC(c1ccc(C)cc1)c1cc([N+](=O)[O-])c2cccnc2c1O (configuration not stated),active: 15.8 µM
4,N#C/C(=C\c1cccc([N+](=O)[O-])c1)C(=O)NCc1ccc(Cl)cc1,active: 3.55 µM
5,COCC(=O)OC/C(O)=C(\C#N)c1nc2ccccc2[nH]1,inactive
6,CCOC(=O)c1c(SCCN2CCCCC2)n(-c2ccccc2)c(=S)n(-c2ccccc2)c1=O,"inconclusive: 22.4 µM [cytotoxic, partial curve, poor fit]"
7,CCOc1ccc(C(CN2CCOCC2)C(C)=O)cc1OC (configuration not stated),"inconclusive: 22.4 µM [cytotoxic, partial curve, poor fit]"
8,CC(N)c1csc(NC(=O)c2cc(C(C)(C)C)nn2Cc2ccccc2)n1 (configuration not stated),inactive
9,COc1cc(OC)c2cc(C(=O)N/N=C/c3cccc(OC)c3O)[nH]c2c1,"inconclusive: 44.7 µM [rising, single point]"
10,O=c1cnnc(N/N=C/c2ccccn2)[nH]1,active: 1.58 µM
11,C=CCc1cccc(/C=N/NC(=O)C[n+]2ccccc2)c1O,"inconclusive: 10 µM [cytotoxic, partial curve, poor fit]"
12,CCOC(=O)/C(=C/c1ccc(N2CCC(c3ccccc3)=N2)cc1)C(C)=O,"inconclusive: 3.55 µM [rising, partial curve]"
13,O=C(CNC(=O)c1cccc(F)c1)N/N=C/c1cc(Br)ccc1OC(=O)/C=C/c1ccco1,inactive
14,COc1ccc(CC(N)c2csc(NC(=O)c3cccc(OC(F)(F)F)c3)n2)cc1 (configuration not stated),"inconclusive: 39.8 µM [cytotoxic, single point]"
15,CCc1ccc(OCC(=O)N/N=C(\C)c2ccc(O)cc2O)cc1,inactive
16,Cc1ccc(C(=O)O)cc1N1C(=O)c2cccc3c([N+](=O)[O-])ccc(c23)C1=O,"inconclusive: 31.6 µM [rising, partial curve]"
17,C=CCN=c1scc(-c2ccc3c(c2)NC(=O)CO3)n1/N=C(\C)c1ccccn1,"inconclusive: 6.31 µM [cytotoxic, partial curve]"
18,O=C(CNC(=O)c1cccc(Br)c1)N/N=C/c1cc(Br)cc(Br)c1O,"inconclusive: 17.8 µM [rising, partial curve]"
19,O=C(NC(Nc1nc2ccc([N+](=O)[O-])cc2s1)(C(F)(F)F)C(F)(F)F)c1ccccc1,active: 0.562 µM
20,CCOC(=O)CSc1cccc2cccnc12,"inconclusive: 11.2 µM [cytotoxic, partial curve, poor fit]"
21,Cn1c(/C=C/c2ccc(Cl)cc2Cl)c([N+](=O)[O-])c(=O)n(C)c1=O,active: 10 µM
22,C[C@H]1O[C@@H](O[C@H]2[C@@H](O)C[C@H](O[C@H]3[C@@H](O)C[C@H](O[C@H]4CC[C@@]5(C)[C@H](CC[C@@H]6[C@@H]5C[C@@H](O)[C@]5(C)[C@@H](C7=CC(=O)OC7)CC[C@]65O)C4)O[C@@H]3C)O[C@@H]2C)C[C@H](O)[C@@H]1O,"inconclusive: 0.316 µM [cytotoxic, full curve]"
23,Cc1ccnc(NC(=O)C2CCN(S(=O)(=O)c3c(C)c(C)cc(C)c3C)CC2)c1,active: 15.8 µM

row,SMILES,Potency
1,COc1ccccc1-c1ccc2c(c1)C(C)(Cc1cccc(F)c1)C(=O)N2 (configuration not stated),inactive
2,COc1ccc(C(C)=O)cc1CC1(C)C(=O)Nc2ccc(-c3cccc(C(F)(F)F)c3)cc21 (configuration not stated),"inconclusive: 39.8 µM [cytotoxic, single point]"
3,O=C(c1ccc(C#Cc2ccccc2)o1)N1CCN(c2ccccn2)CC1,"inconclusive: 25.1 µM [cytotoxic, single point]"
4,CCN(Cc1ccccc1)S(=O)(=O)c1ccc(C(=O)Nc2nnc(C3CC3)o2)cc1,inactive
5,CC(C)CC(N)c1csc(NC(=O)Nc2ccccc2C(C)(C)C)n1 (configuration not stated),inactive
6,CC(C)(C)c1nnc(N/N=C/c2ccccc2O)n(N)c1=O,"inconclusive: 2 µM [cytotoxic, full curve, poor fit]"
7,Cc1cccc(NC(c2ccc(C)s2)c2ccc3ccc(C)nc3c2O)n1 (configuration not stated),"inconclusive: 5.01 µM [cytotoxic, full curve, poor fit]"
8,Cc1ccccc1NC(=O)Nc1nc(C(N)C2CCCCC2)cs1 (configuration not stated),"inconclusive: 11.2 µM [cytotoxic, partial curve, poor fit]"
9,CC(C)(C)c1ccc(OCCn2nc(C(=O)O)c3ccccc3c2=O)cc1,inactive
10,COc1cc(C(=O)NC(=S)NNC(=O)c2cnccn2)cc(OC)c1OC,"inconclusive: 20 µM [cytotoxic, partial curve, poor fit]"
11,CN1C(=O)/C(=C/c2ccccc2F)Sc2ccc(C(=O)N3CCCC3)cc21,inactive
12,CCOc1ccc(/C=N/NC(=O)C(O)c2ccccc2)c(O)c1 (configuration not stated),inactive
13,C/C(=N\NC(=O)C1COc2ccccc2O1)c1ccccn1 (configuration not stated),"inconclusive: 0.891 µM [cytotoxic, partial curve]"
14,CC(Oc1ccc(Cl)cc1)C(=O)NNC(=S)NC(=O)c1ccco1 (configuration not stated),"inconclusive: 20 µM [cytotoxic, partial curve, poor fit]"
15,Clc1ccc(-c2cc(C3CCNCC3)[nH]n2)c(Cl)c1,inactive
16,COc1ccc2c(Cl)c(C(=O)NN)sc2c1,inactive
17,Nc1cccc2nc3ccccc3cc12,"inconclusive: 31.6 µM [rising, partial curve]"
18,CNc1ccccc1C(=O)OC(C)C(=O)Nc1ccc(Cl)cn1 (configuration not stated),inactive
19,CC(Sc1nnc2c(n1)[nH]c1ccccc12)C(=O)N(C)C1CCCCC1 (configuration not stated),"inconclusive: 14.1 µM [cytotoxic, partial curve]"
20,CCn1c2ccccc2c2cc(NC(=O)COC(=O)c3cc(S(=O)(=O)N4CCCCC4)ccc3Cl)ccc21,inactive
21,C=CCc1cccc(/C=N/NC(=O)CCC(=O)Nc2ccc(C)cc2)c1O,"inconclusive: 8.91 µM [cytotoxic, partial curve, poor fit]"
22,Cc1ccc(C)c(S(=O)(=O)N2CCN(Cc3ccc(O)c4ncccc34)CC2)c1,"inconclusive: 2.82 µM [cytotoxic, full curve]"
23,CC[C@]12c3[nH]c4ccc(Cl)cc4c3CCN1C(=O)[C@@H](CC(=O)NCC13CC4CC(CC(C4)C1)C3)C[C@@H]2C(=O)N1CCN(C(=O)c2ccco2)CC1,active: 3.16 µM

row,SMILES,Potency
1,Cc1nnc(-c2ccccc2)c(=O)n1/N=C/c1c(O)ccc2ccccc12,"inconclusive: 39.8 µM [rising, single point]"
2,COc1cc(/C=N/NC(=O)c2cncc(Br)c2)cc([N+](=O)[O-])c1O,"inconclusive: 2.51 µM [cytotoxic, partial curve]"
3,Cc1ccc(NC(=O)c2ccc(-c3nn(C)c(=O)c4ccccc34)cc2)cc1,inactive
4,Cc1ccc(S(=O)(=O)NCC(=O)N/N=C/c2ccccc2O)cc1,"inconclusive: 2.82 µM [cytotoxic, single point]"
5,CCCCC1C(=O)CC[C@H]2[C@@H]1CC(=O)[C@@H]2C/C=C\CCCC(=O)O (some centres not stated),inactive
6,COc1ccc2[nH]c3c(N4CCC(O)(c5cccc(C(F)(F)F)c5)CC4)ncnc3c2c1,"inconclusive: 1.58 µM [cytotoxic, partial curve, poor fit]"
7,Cc1ccc(N2CC(C(=O)Nc3nccs3)CC2=O)cc1Cl (configuration not stated),"inconclusive: 8.91 µM [cytotoxic, partial curve]"
8,Cc1ccc(NC(=O)COc2ccc(/C=C3/SC(=Nc4ccccc4)N(Cc4cccnc4)C3=O)cc2)cc1,active: 17.8 µM
9,COc1cc(/C=C/C(=O)c2ccc(C)c([N+](=O)[O-])c2)cc(OC)c1O,"inconclusive: 17.8 µM [cytotoxic, partial curve]"
10,CCCCCCn1c2c(c(=N)c3c1CCC3)CCC2,"inconclusive: 8.91 µM [cytotoxic, partial curve]"
11,COc1ccc(OC)c(/C=C/C(=O)N2C(=O)c3cccc(N)c3C2=O)c1,"inconclusive: 31.6 µM [rising, partial curve]"
12,CC1(C(=O)NCc2cccc(C(F)(F)F)c2)CCN1Cc1ccc(-c2ccccc2)o1 (configuration not stated),inactive
13,CC(=O)c1ccc(N2CCc3ccccc3C2)c([N+](=O)[O-])c1,"inconclusive: 8.91 µM [cytotoxic, partial curve, poor fit]"
14,NC(=Nc1nc(-c2ccccn2)cc2ccccc12)c1ccccn1,"inconclusive: 0.199 µM [cytotoxic, full curve, poor fit]"
15,CC(C)(C)c1cc(C(=O)N/N=C/c2ccc([N+](=O)[O-])s2)n[nH]1,"inconclusive: 20 µM [cytotoxic, partial curve]"
16,CN1CCC2(CC1)N=C(c1ccc(F)cc1)C(=S)N2C(=O)c1ccc(C(C)(C)C)cc1,"inconclusive: 12.6 µM [cytotoxic, partial curve, poor fit]"
17,O=C(c1ccc(F)cc1F)C1CCN(c2ccc([N+](=O)[O-])cn2)CC1,"inconclusive: 11.2 µM [cytotoxic, partial curve, poor fit]"
18,CCCC(=O)NC(c1ccc(C(C)C)cc1)c1ccc2cccnc2c1O (configuration not stated),inactive
19,Cc1cc(C)c(S(=O)(=O)/N=C2\C=C(Nc3ccc(C(=O)O)cc3)C(=O)c3ccccc32)c(C)c1,active: 2 µM
20,N#Cc1ccc(/C=C\c2nccc3c2[nH]c2ccccc23)cc1,"inconclusive: 0.794 µM [rising, full curve]"
21,O=C(Nc1ccc(Cl)c(Cl)c1)c1cccc(S(=O)(=O)NCc2cccnc2)c1,"inconclusive: 4.47 µM [cytotoxic, partial curve]"
